Source: PMC6919601, “Identification of Plasmodium dipeptidyl aminopeptidase allosteric inhibitors by high throughput screening” (PLoS ONE, 2019)
Out of some 110,000 compounds screened, about 230 (0.21%) showed an effect of 50% or more. The list shows a part of the results. Where a SMILES comes first, the peptide text is derived from it. [ ]: non-standard residue; d: D form. The star is where a group is joined. Phe(4-Me) = Cc1ccc(C[CH](N)C(=O)O)cc1; Bz = O=C(c1ccccc1)*

Target: DPAP1 (Plasmodium falciparum, UniProt Q8IIJ9)
Sequence (Q8IIJ9 whole entry, looked up): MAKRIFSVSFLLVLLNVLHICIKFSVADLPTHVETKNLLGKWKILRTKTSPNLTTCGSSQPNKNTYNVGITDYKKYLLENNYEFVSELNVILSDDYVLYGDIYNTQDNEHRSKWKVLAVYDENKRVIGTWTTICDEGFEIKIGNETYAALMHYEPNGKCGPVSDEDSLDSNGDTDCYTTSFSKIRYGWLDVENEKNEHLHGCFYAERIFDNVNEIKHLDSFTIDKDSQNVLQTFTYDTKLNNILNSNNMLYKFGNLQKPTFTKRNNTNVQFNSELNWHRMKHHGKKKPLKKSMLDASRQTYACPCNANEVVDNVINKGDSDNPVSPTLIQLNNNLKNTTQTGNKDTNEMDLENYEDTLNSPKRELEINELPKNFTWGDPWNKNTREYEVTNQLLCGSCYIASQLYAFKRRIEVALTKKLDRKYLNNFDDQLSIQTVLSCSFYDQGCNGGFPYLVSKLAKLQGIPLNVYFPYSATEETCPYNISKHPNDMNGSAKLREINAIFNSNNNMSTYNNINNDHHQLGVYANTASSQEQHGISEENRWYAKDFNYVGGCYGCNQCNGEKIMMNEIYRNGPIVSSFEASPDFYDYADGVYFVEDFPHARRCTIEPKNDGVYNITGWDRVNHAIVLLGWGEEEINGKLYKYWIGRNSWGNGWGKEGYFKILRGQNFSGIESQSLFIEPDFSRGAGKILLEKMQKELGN
Test: primary screen, percent inhibition; read by cleavage of a fluorogenic dipeptide substrate; higher = more effect of the substance
Design: species or system P. falciparum D10 trophozoite lysates; single well
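Also: 30 min substrate incubation versus DMSO and 10 µM JCP410 controls.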

Compared with COc1ccc(OC)c(CCNC(=O)Cn2cc3c(n2)-c2c(oc(C(=O)N4CCCC4)c2C)CC3)c1, COc1ccc(C(CNC(=O)c2oc3ccc(F)cc3c2C)N2CCCCC2)cc1 (centres unmarked) is lower in “% Inhibition @ 10 uM” value: 3.61% for the first, 1.67% for the second.

Going from CC1CCCC(NCCCN2CCOCC2)C1 (centres unmarked) to CCCN1CCC(NCCN2CCCCC2)CC1, the “% Inhibition @ 10 uM” value falls from 3.19% to 2.1%.

Compared with O=C1CSc2nnc(-c3ccccc3Br)n2N1, Cc1ccccc1-c1nnn(Cc2ccc(Cl)cc2Cl)n1 is higher in “% Inhibition @ 10 uM” value: 2.89% for the first, 6.22% for the second.

Compared with CN1CCCN(Cc2ccccc2C(F)(F)F)CC1, FC(F)(F)c1ccccc1CN1CCN(c2ccc(Cl)cc2)CC1 is higher in “% Inhibition @ 10 uM” value: -5.68% for the first, -2.03% for the second.

Going from Cc1occc1C(=O)NCc1ccccc1 to CCOC(=O)c1c(C)c(C(=O)NCc2ccco2)c(C)n1Cc1ccccc1, the “% Inhibition @ 10 uM” value rises from -4.89% to -1.66%.

Going from CC1CCCCN1C(=O)C1CCCCC1C(=O)O (centres unmarked) to N#CCNC(=O)[C@H](CC1CCCCC1)NC(=O)N1CCNCC1, the “% Inhibition @ 10 uM” value rises from 0.909% to 1.35%.

Going from O=C(CCC1CCCC1)Nc1nc2ccccc2s1 to CCCCCC(=O)Nc1nc2ccccc2[nH]1, the “% Inhibition @ 10 uM” value rises from -2.65% to 3.05%.

First: C#CCNc1cc(-c2ccccc2)nc2nncn12
Second: CCc1c(C)nc2nncn2c1NCc1ccco1
The “% Inhibition @ 10 uM” value of the first is lower: -2.57% for the first, 2.54% for the second.

First: N#Cc1nc(-c2ccc([N+](=O)[O-])cc2)oc1NCc1ccccc1
Second: N#Cc1ccc(-c2nnc3n(Cc4ccccc4)c(=O)c4ccccc4n23)cc1
The “% Inhibition @ 10 uM” value of the first is lower: -0.152% for the first, 1.68% for the second.

First: CC(C)CC(C(=O)NCC#N)c1cnc(-c2ccc(-c3csc(N4CCNCC4)n3)cc2)s1 (centres unmarked)
Second: CC(C)C[C@H](NC(=O)C1c2ccccc2Oc2ccccc21)C(=O)NCC#N
The “% Inhibition @ 10 uM” value of the first is lower: -4.72% for the first, -0.207% for the second.

First: COc1cc(OC)cc(C(=O)N(Cc2nc(-c3ccc(Cl)cc3)no2)C(C)C)c1
Second: COc1ccc(CNC(=O)c2cc3sc(Cl)cc3n2C)cc1
The “% Inhibition @ 10 uM” value of the first is lower: -8.22% for the first, -6.68% for the second.

Compared with CCN(CC)S(=O)(=O)c1cccc(C(=O)Nc2nc(COc3ccccc3)cs2)c1, CCN(CC)S(=O)(=O)c1cccc(C(=O)Nc2ccccn2)c1 is higher in “% Inhibition @ 10 uM” value: -5.15% for the first, -3.66% for the second.

Going from COc1ccc(CNC(=O)c2ccc(CN(c3ccccc3)S(C)(=O)=O)cc2)cc1 to CCOc1ccc(NC(=O)CN(c2ccc(F)cc2)S(=O)(=O)c2ccc(C)cc2)cc1, the “% Inhibition @ 10 uM” value rises from -3.71% to 12.2%.

Compared with COc1ccccc1C1C(C#N)=C(N)OC2=C1C(=O)CC(c1ccccc1)C2 (centres unmarked), O=C(/C=C1\NCC2c3ccccc3CCN2C1=O)c1ccccc1 (centres unmarked) is lower in “% Inhibition @ 10 uM” value: 3.03% for the first, -2.45% for the second.

Going from CC(CCc1ccccc1)NC(=O)c1ccc2ccccc2c1 (centres unmarked) to Oc1ccccc1CN(Cc1ccccc1)Cc1ccccc1, the “% Inhibition @ 10 uM” value falls from -1.46% to -3.96%.

First: O=C(O)C1CC=CCC1C(=O)Nc1ccccc1F (centres unmarked)
Second: O=C(Cc1ccccc1)Nc1cccc(Cl)c1Cl
The “% Inhibition @ 10 uM” value of the first is lower: -2.58% for the first, -2.42% for the second.

Compared with CCC(Oc1ccccc1)C(=O)N1CCN(c2ccc(F)cc2)CC1 (centres unmarked), COc1ccc(OC)c(CN2CCN(C(=O)C(c3ccccc3)c3ccccc3)CC2)c1 is higher in “% Inhibition @ 10 uM” value: -8.46% for the first, 5.6% for the second.

Compared with Cc1ccc(CC(NC(=O)c2ccccc2)C(=O)NC(CC(C)C)C(=O)O)cc1 (centres unmarked) (Bz-[Phe(4-Me)]-Leu-OH; configuration not given here), CC(C)C[C@H](NC(=O)OCc1ccccc1)C(=O)N[C@H](C#N)CC(=O)OCc1ccccc1 is higher in “% Inhibition @ 10 uM” value: -2.14% for the first, 14.7% for the second.

Compared with COc1cc(NCCCCCN)c2ncccc2c1, CCN(CC)CCCCOc1ccc(C)cc1C is lower in “% Inhibition @ 10 uM” value: 2.32% for the first, 1.83% for the second.

First: CC1CCCCC1NC(=O)C1=CCN(S(=O)(=O)c2ccc(Br)cc2)CC1 (centres unmarked)
Second: COc1ccc(N2CCN(S(=O)(=O)c3ccc(OC)c(C)c3)CC2)cc1
The “% Inhibition @ 10 uM” value of the first is higher: 5.09% for the first, -1.02% for the second.

First: Cc1ccc(-c2cc(/N=C3/C=C(O)CC(C)(C)C3)[nH]n2)cc1
Second: COc1cccc(-c2cc(C(=O)N3CC=C(c4ccccc4)CC3)[nH]n2)c1
The “% Inhibition @ 10 uM” value of the first is lower: -7.35% for the first, 12.6% for the second.

Going from CC(=O)c1cc(-c2ccccc2)n(CC(=O)N2CC(C)CC(C)C2)c1C (centres unmarked) to CCOC(=O)N1CCN(C(=O)Cn2ncc3c2-c2ccccc2OC3)CC1, the “% Inhibition @ 10 uM” value rises from 1.27% to 3.32%.

Going from CC(=O)c1cc(C#N)c(SCc2ccc(F)cc2)nc1C to CC(C)Sc1oc(-c2cccs2)nc1S(=O)(=O)c1ccc(F)cc1, the “% Inhibition @ 10 uM” value falls from 1.43% to -0.58%.

First: COc1ccc(N2CCN(c3nc(OC)nc(N4CCOCC4)n3)CC2)cc1
Second: COc1ccc(-c2nnc(SCC(=O)N3CCCCC3C)o2)cc1 (centres unmarked)
The “% Inhibition @ 10 uM” value of the first is higher: 9.62% for the first, -3.49% for the second.

Going from Cc1cccc(OCC(=O)N(Cc2ccccc2)c2ccccn2)c1C to CCOc1ccccc1C(=O)Nc1ccccc1C(C)C, the “% Inhibition @ 10 uM” value rises from -3.12% to -2.22%.

Compared with COc1ccc(NC(=O)CN2C(=O)S/C(=C/c3cccc(O)c3)C2=O)cc1, COc1ccc(NS(=O)(=O)c2ccc(NC(=O)CCC(=O)O)cc2)cc1 is lower in “% Inhibition @ 10 uM” value: 18% for the first, -1.51% for the second.

First: N#CCNC(=O)C(CC(=O)N1CCCCC1)CS(=O)(=O)Cc1ccccc1 (centres unmarked)
Second: CCOC(=O)N1CCN(C(=O)COc2ccccc2Cl)CC1
The “% Inhibition @ 10 uM” value of the first is lower: -7.21% for the first, -4.51% for the second.

Going from CN1C2CCC1/C(=C\c1ccccc1)C(=O)/C2=C\c1ccccc1 to O=C(NC1CCCc2ccccc21)c1cnn(-c2ccccc2)c1-n1cccc1 (centres unmarked), the “% Inhibition @ 10 uM” value falls from 1.07% to -3.58%.

Going from Cc1ccc(C)n1-c1nnc(N2CCC(C(=O)N3CCC(Cc4ccccc4)CC3)CC2)s1 to COc1ccc(-c2nn(C)c3sc(C(=O)N4CCN(C5CCCCC5)CC4)cc23)cc1OC, the “% Inhibition @ 10 uM” value rises from 4.22% to 4.51%.

Compared with CC1CN(Cc2nc3c(c(=O)[nH]c(=O)n3C)n2Cc2ccccc2F)CC(C)O1 (centres unmarked), CCOCCCNC(=O)Cn1ncc2c3ccccc3n(Cc3ccccc3F)c2c1=O is lower in “% Inhibition @ 10 uM” value: 0.44% for the first, 0.137% for the second.

Compared with Cc1ccc(CNC(=O)C(=O)NCC(c2cccnc2)N2CCN(Cc3ccccc3)CC2)cc1 (centres unmarked), O=C(NCCN1CCOCC1)c1ccc(CNC(=O)c2cccc(Br)c2)cc1 is higher in “% Inhibition @ 10 uM” value: -1.94% for the first, 2.9% for the second.

Going from CCOc1ccc(C2NCCc3cc(OCC)c(OCC)cc32)cc1OC (centres unmarked) to CCOc1ccc(CCNC(=O)Cn2nc(-c3ccc(Cl)cc3)ccc2=O)cc1OCC, the “% Inhibition @ 10 uM” value rises from -2.85% to -1.79%.

First: O=C1CC(c2cc3c(cc2Br)OCO3)c2cc3c(cc2N1)CCC3 (centres unmarked)
Second: O=c1[nH]n(-c2ncnc3sc4c(c23)CCCC4)c(=O)c2ccccc12
The “% Inhibition @ 10 uM” value of the first is higher: 6.92% for the first, 2.79% for the second.

Compared with C=CCSc1ncc(Cl)c(C(=O)Nc2nnc(SC)s2)n1, Cc1ccc(NC(=O)CSc2nc3ccc(N)cc3s2)cc1Cl is lower in “% Inhibition @ 10 uM” value: 2.41% for the first, 0.726% for the second.

Compared with CCOC(=O)N1CCN(CC(C)CCC=C(C)C)CC1 (centres unmarked), CCOC(=O)c1cc2c(=O)n3cc(C)ccc3nc2n(CCN2CCOCC2)c1=N is higher in “% Inhibition @ 10 uM” value: -2.02% for the first, 0.279% for the second.

Going from CCN(CC)C(=O)c1c(-c2ccccc2)oc2ccc(O)cc12 to CCCCN(CCCC)C(=O)Cc1c(O)nc2ccccc2c1O, the “% Inhibition @ 10 uM” value rises from -2.6% to 0.219%.

Compared with COc1ccc(CN2C(=O)C(C)S/C2=N/N=C/c2ccco2)cc1 (centres unmarked), COc1ccc(N2C(=O)/C(=C\c3ccc[nH]3)C(=O)NC2=S)cc1 is lower in “% Inhibition @ 10 uM” value: -1.47% for the first, -2.48% for the second.

First: Cc1cccc(OCC(=O)Nc2sc3c(c2C#N)CCCC3)c1
Second: Cc1ccc(CSCc2ccc(C(=O)NCC3CCCO3)o2)cc1 (centres unmarked)
The “% Inhibition @ 10 uM” value of the first is lower: -5.63% for the first, 4.81% for the second.

Compared with O=C(c1cncc(Br)c1)N1CCC(c2c[nH]c3ccccc23)(c2c[nH]c3ccccc23)CC1, Fc1ccccc1C1CC(c2ccc(Br)cc2)=NN1c1ccccc1Cl (centres unmarked) is lower in “% Inhibition @ 10 uM” value: -2.37% for the first, -9.6% for the second.

Going from CC1CN=C(Nc2cccc3ccccc23)S1 (centres unmarked) to O=c1c2ccccc2nc(CNCc2ccco2)n1-c1ccc(F)cc1, the “% Inhibition @ 10 uM” value falls from 6.79% to 1.94%.

Compared with O=C1C2C3C=CC(C2C(=O)N1C1CCCCC1)C1C2C(=O)N(C4CCCCC4)C(=O)C2C31 (centres unmarked), O=C(CCCn1c(=O)c2sccc2n(CC(=O)NCC2CCCO2)c1=O)NCc1ccco1 (centres unmarked) is lower in “% Inhibition @ 10 uM” value: -3.45% for the first, -7.15% for the second.

Going from CC(C)C[C@H](NC(=O)C1CCNCC1)C(=O)N[C@@H](CCc1ccccc1)C(=O)COC(=O)c1cc(Cl)ccc1Cl to CC(C)Nc1nc2c(S(=O)(=O)c3ccccc3)nnn2c2ccc(Cl)cc12, the “% Inhibition @ 10 uM” value rises from -7.58% to -1.37%.

First: CCN(CC)C(=O)C1CCCN(Cc2cccc(OC)c2)C1 (centres unmarked)
Second: CCN(CC)CCNC(=O)c1sc2nc(C)nc(N3CCCCC3)c2c1C
The “% Inhibition @ 10 uM” value of the first is lower: 1.48% for the first, 4.35% for the second.

First: CN1C(=O)/C(=C/c2cccs2)S/C1=N/c1ccc(Cl)c(C(=O)O)c1
Second: C=CCN1C(=O)C(O)(CC(=O)c2cccs2)c2ccccc21 (centres unmarked)
The “% Inhibition @ 10 uM” value of the first is lower: 0.695% for the first, 1.52% for the second.

Compared with CCOC(=O)C1=C(C)N=c2s/c(=C\c3cc(Cl)cc(Cl)c3O)c(=O)n2C1c1ccccc1 (centres unmarked), Cc1ccc(-n2nc3c(=O)n(CCCC(=O)NCC(C)c4ccccc4)nc(C)c3c2C)cc1 (centres unmarked) is lower in “% Inhibition @ 10 uM” value: 26.9% for the first, -2.31% for the second.

First: O=C(Nc1cccnc1)c1cc2n(n1)C(C(F)(F)F)CC(c1ccc(Br)cc1)N2 (centres unmarked)
Second: O=C1c2ccccc2C(=O)N1CC(=O)n1nc(-c2cccnc2)nc1NCc1cccs1
The “% Inhibition @ 10 uM” value of the first is higher: 2.99% for the first, 2.21% for the second.

Going from Cc1nc(S(=O)(=O)NCc2ccccc2Cl)c(C#N)c(C)c1Cl to CC(C)C(=O)n1nc(-c2ccco2)nc1NCc1cccs1, the “% Inhibition @ 10 uM” value falls from -3.04% to -3.24%.

First: O=c1ccc2c(o1)/C(=C\C=C(Cl)Cl)CC2
Second: CC1(C)CCCN(Cc2c(O)ccc3c(O)c(-c4nc5ccccc5s4)c(=N)oc23)C1
The “% Inhibition @ 10 uM” value of the first is lower: 3.34% for the first, 11.3% for the second.

Going from CCN(CC)C(=O)Cn1cnc2c1c(=O)n(C)c(=O)n2C to CCC(=O)Nc1nc2nccc(C)n2n1, the “% Inhibition @ 10 uM” value falls from 6.24% to -1.31%.
